# PubChem BioAssay AID504832 (National Center for Advancing Translational Sciences (NCATS), 2011)
# Screen size: about 310,000 compounds; about 18,000 (5.8%) were called active. The inconclusive results got no clear call from the source; some entries with a clear call stand among them for comparison. Calls follow the shape of the dose curve; as a rule, active = well fitted inhibition curve with a large enough effect; inconclusive = small, poorly fitted or top-dose-only effect, or another doubt; inactive = no such curve, though single readings can be large or run the other way. No potency is given beside an inconclusive call; the fits are too rough.
# Assay: Primary qHTS for delayed death inhibitors of the malarial parasite plastid, 48 hour incubation
# Settings: P. falciparum luciferase growth in erythrocytes; series mostly up to 28.7 µM
# Procedure, shortened: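 Luminescence readout; reporter = integrated firefly luciferase in P. falciparum. RBC culture at 2% hematocrit, 0.1% parasitemia final, 37 C/5% CO2; decreased signal taken as growth inhibition.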
# Potency is read from the fitted curve at half-maximal effect; tags tell the direction and shape of the fitted curve.
row,SMILES,Potency
1,CN(c1ccccc1)c1nc(N)c([N+](=O)[O-])c(NC2CCCCC2)n1,"inconclusive [inhibitor, single point]"
2,Cc1ccc2nc(Cl)c(C3CC(c4ccco4)=NN3C(=O)CCCC(=O)O)cc2c1 (configuration not stated),inactive
3,Cc1noc(C)c1COC(=O)CCCNC(=O)c1ccc(Cl)cc1,"inconclusive [inhibitor, single point]"
4,O=C(/C=C/c1ccccc1[N+](=O)[O-])c1ccccc1Br,"inconclusive [inhibitor, partial curve, poor fit]"
5,CC(=O)N1CCN(c2ccc(NCc3ccc(C(C)C)cc3)cc2)CC1,"inconclusive [inhibitor, single point]"
6,Cn1nc(-c2ccccc2)cc1NC(=O)Nc1ccc(F)cc1,"inconclusive [inhibitor, partial curve, poor fit]"
7,CC(C)N(C(=O)CSc1ccc(S(=O)(=O)N2CCCCC2)cn1)c1ccccc1,active: 8.28 µM
8,O=c1[nH]cnc2c1ncn2[C@H]1CC[C@@H](CO)O1,"inconclusive [inhibitor, single point]"
9,COc1ccc(CCNC(=O)CCS(=O)(=O)c2ccc3c(c2)CCN3C(C)=O)cc1OC,"inconclusive [inhibitor, single point]"
10,S=c1[nH]nc(-c2cccs2)n1C1CCCCC1,"inconclusive [inhibitor, partial curve, poor fit]"
11,O=CN/C=C/c1cc(O)ccc1O,inactive
12,O=C(NCCCN1CCCC1)c1ccc(Cn2c(=S)[nH]c3ccc(Br)cc3c2=O)cc1,active: 13.1 µM
13,O=C(Nc1ccccc1N1CCCC1)c1cccc(S(=O)(=O)N2CCOCC2)c1,"inconclusive [inhibitor, single point]"
14,CCCCCCc1ccc(N2C[C@H](Cc3ccccc3)[C@@H](CC(=O)Nc3ccccc3)C2=O)cc1,"inconclusive [inhibitor, partial curve, poor fit]"
15,COc1cc(NC(=O)CCn2c(=O)[nH]c3ccsc3c2=O)cc(OC)c1,"inconclusive [inhibitor, partial curve, poor fit]"
16,CC(C)Cn1c(/C=N/Nc2nc3ccccc3[nH]2)nc2ccccc21,active: 3.7 µM
17,CC(=O)N(Cc1c(C)nn(-c2ccccc2)c1Cl)c1ccc(Cl)cc1,"inconclusive [inhibitor, partial curve, poor fit]"
18,CCOC(=O)C1CCCN(C2=C(NS(=O)(=O)c3ccc(Br)cc3)C(=O)c3ccccc3C2=O)C1 (configuration not stated),active: 5.22 µM
19,CCOC(=O)C1=C(COC(=O)COc2ccc(C#N)cc2)NC(=O)NC1C (configuration not stated),inactive
20,COc1ccc(C(=O)NCCn2cc(SCC(=O)NCC3CCCO3)c3ccccc32)cc1OC (configuration not stated),active: 8.28 µM
21,Cc1cc(OCCCCCNCCO)ccc1Cl,"inconclusive [inhibitor, single point]"
22,Cc1onc(-c2ccccc2)c1C(=O)Nc1cccc(S(=O)(=O)NC2=NCCC2)c1,"inconclusive [inhibitor, partial curve, poor fit]"
23,Cc1ccc(C(=O)N/C(=C/c2ccco2)C(=O)N2CCCCC2)cc1,inactive
24,COc1cc2[nH]c(=S)nc(NCCC(C)C)c2cc1OC,"inconclusive [inhibitor, full curve, poor fit]"

row,SMILES,Potency
1,Cc1nc(NC(=O)CCc2ccccc2)sc1C,inactive
2,N#Cc1ccc(COC(=O)CSc2nnc(C3CCCCC3)n2N)cc1,inactive
3,COc1ccc(CNC(=O)c2cc(C3CC3)nc3c2cnn3C(C)C)cc1,active: 13.1 µM
4,CN(C)CCn1c(N)nc2ccccc21,inactive
5,CCOc1ccc(C(=O)NCC(=O)NC(C)c2ccc(-n3ccnc3)cc2)cc1OCC (configuration not stated),"inconclusive [inhibitor, single point]"
6,CSc1nc2c(cc1C#N)C(=O)CC(C)(C)C2,inactive
7,Cc1ccc(-n2ncc3c2CCCC3NC(=O)CCCN2CCCC2=O)cc1C (configuration not stated),"inconclusive [inhibitor, single point]"
8,COc1ccc2cc(C(c3nnnn3C(C)(C)C)N3CCc4ccccc4C3)c(=O)[nH]c2c1 (configuration not stated),"inconclusive [inhibitor, full curve]"
9,CC1(C)CC(=O)C=C(NCCN2CCN(C(=O)Nc3ccc(Cl)c(Cl)c3)CC2)C1,"inconclusive [inhibitor, partial curve]"
10,CC(C)COn1c(=S)[nH]c2ccccc2c1=O,inactive
11,O=C(CC1Sc2ccccc2NC1=O)NCc1ccccc1 (configuration not stated),"inconclusive [inhibitor, single point]"
12,O=C1CNC(=S)N1c1nc2ccccc2s1,inactive
13,Cc1cc(Cn2ccnc2)c(C)c([N+](=O)[O-])c1Cn1ccnc1,active: 10.4 µM
14,CC(C)Sc1ccc([N+](=O)[O-])cc1C(=O)Nc1ccncc1,"inconclusive [inhibitor, full curve]"
15,COCCCNC(=O)c1cc(Sc2nnc(C)s2)nc2ccccc12,inactive
16,CCn1c(COc2ccc3c(c2)OCO3)nnc1SCC(=O)c1ccccc1,"inconclusive [inhibitor, single point]"
17,COC(=O)C1=C(c2cccc(OCc3ccccc3)c2)C[C@@H]2CC[C@H]1N2C(=O)NC1CCN(Cc2ccccc2)CC1,active: 13.1 µM
18,CCOC(=O)c1c(-c2cccs2)csc1NC(=O)CN1CC(C)OC(C)C1 (configuration not stated),"inconclusive [inhibitor, single point]"
19,COc1cccc(C(C)NC(=O)C2CCCC2)c1 (configuration not stated),inactive
20,CC(C)(C)OC(=O)N/N=C/c1c[nH]c2ccccc12,inactive
21,O=C(/C=C/c1ccc(OC(F)F)cc1)Nc1cccc(S(=O)(=O)N2CCOCC2)c1,inactive
22,Cc1sc2ncn(CC(=O)Nc3cccc(S(N)(=O)=O)c3)c(=O)c2c1-c1ccccc1,inactive
23,CC1=C(C(=O)OC2CCCC2)C(c2coc3ccccc3c2=O)C2=C(CCCC2=O)N1 (configuration not stated),"inconclusive [inhibitor, partial curve, poor fit]"
24,COC(=O)C1=C(C)N(Cc2ccccc2)C(=O)N[C@H]1c1cccs1,"inconclusive [inhibitor, single point]"

row,SMILES,Potency
1,COc1ccc(OCCC(=O)Nc2ccc(S(N)(=O)=O)cc2)cc1,inactive
2,CC(=O)C1=C(O)C(=O)N(c2ccc(O)cc2)C1c1ccc(C)cc1 (configuration not stated),inactive
3,C/C(=N\NC(=O)c1ccccc1OCc1ccc(F)cc1)c1ccccn1,active: 1.47 µM
4,FC(F)(F)C1=CC(c2ccc(Cl)cc2)=NCCN1,"inconclusive [inhibitor, partial curve]"
5,Cc1ccc(/C=N/NC(=O)c2ccc(-c3ccccc3)cc2)o1,"inconclusive [inhibitor, partial curve]"
6,COCCN1C(=O)N(c2cccc(C)c2)C(=O)C1CC(=O)Nc1ccc(OC)cc1 (configuration not stated),"inconclusive [inhibitor, full curve, poor fit]"
7,CC(OC(=O)c1ccccc1Nc1ccc(SC(F)F)cc1)C(N)=O (configuration not stated),inactive
8,Cc1cccc(NC(=O)c2ccccc2NC(=O)c2ccco2)c1,"inconclusive [inhibitor, single point]"
9,COc1cc(NC(=O)C2CCCN(c3ncnc4c3nc3n4CCCCC3)C2)cc(OC)c1OC (configuration not stated),"inconclusive [inhibitor, partial curve, poor fit]"
10,CCOc1ccc(S(=O)(=O)N2CCN(CCNS(=O)(=O)c3ccc(C)cc3)CC2)cc1,"inconclusive [inhibitor, single point]"
11,N/C(=N\OC(=O)Cc1ccc(Cl)cc1)c1ccncc1,"inconclusive [inhibitor, single point]"
12,O=C(Nc1sc2c(c1-c1nc3ccccc3[nH]1)CCCC2)C1CC1,"inconclusive [inhibitor, single point]"
13,COc1ccc(Cl)cc1S(=O)(=O)N1CCC(C(=O)NCc2ccccn2)CC1,"inconclusive [inhibitor, single point]"
14,COc1ccc(-c2cc(C(F)(F)F)nc(S(=O)(=O)CCCC(=O)Nc3cccnc3Cl)n2)cc1OC,active: 11.7 µM
15,Cc1sc2nc(CN3CCOCC3)nc(N3CCC(C(N)=O)CC3)c2c1C,inactive
16,O=c1[nH]c(C2CCN(S(=O)(=O)c3ccc(S(=O)(=O)NC4CC4)cc3)CC2)nc2c1nnn2Cc1cccc(F)c1,active: 9.28 µM
17,COC(=O)CCC(=O)Nc1ccc(NC(C)=O)cc1,"inconclusive [inhibitor, single point]"
18,CC1CCCN(C(=O)CN(c2ccccc2)S(=O)(=O)c2ccc(F)cc2)C1 (configuration not stated),"inconclusive [inhibitor, single point]"
19,Cc1cc(NC(=O)CSc2nnc(-c3cccc(Cl)c3)o2)no1,"inconclusive [inhibitor, single point]"
20,O=C1C=C(c2ccccc2)OC2(CCCC2)O1,inactive
21,O=P(COCCCCCOCP(=O)(c1ccccc1)c1ccccc1)(c1ccccc1)c1ccccc1,"inconclusive [inhibitor, full curve]"
22,O=C(CC1SC(=Nc2ccc(OC(F)F)cc2)N(CCC2=CCCCC2)C1=O)Nc1ccccc1F (configuration not stated),active: 10.4 µM
23,O=S(=O)(NC1=NCCC1)c1cccc(NS(=O)(=O)c2ccc(F)c(Cl)c2)c1,"inconclusive [inhibitor, single point]"
24,Cn1c(NCc2ccccc2)nc2c1c(=O)n(Cc1ccc(Br)cc1)c(=O)n2C,"inconclusive [inhibitor, single point]"
